Laboratory results from the supplement of paper PMC10126150.
Sequences with one replicate were seen in a single cluster, so their values are uncertain.

Tested on: ATP
Assay: switch fluorescence ratio, 500 uM ATP over buffer (Cy3 cluster intensity, sum of 5 cycles each) (fold (ratio)); higher = stronger signal-on switching upon ATP binding; sequences stand for … in TCGTCGGCAGCGTCAGATGTGTATAAGAGACAGTTTTTTTTTTTTTTTTTTTTTTTTT…TC
Conditions: aptamer strand: ATP DNA aptamer (quencher-CACCTGGGGGAGTATTGCGGAGGAAGG + anchor), 100 nM annealed; ATP concentration: 500 uM; one replicate
Procedure, shortened: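 After annealing to 100 nM quencher-labelled ATP aptamer, Cy3-labelled switching-strand clusters on a modified Illumina MiSeq flow-cell were imaged in selection buffer. A second image followed after 15 min with 500 uM ATP at 22 °C, and five such buffer/ATP cycles were done, each separated by NaOH stripping and re-annealing. The fluorescence ratio, averaged per switch-domain sequence, is summed target-cycle over summed buffer-cycle Cy3 intensity per cluster, with clusters outside 100-1000 RFU excluded.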
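Further: ATP exposure 15 min at 22 °C before imaging.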

Q: Which switch fluorescence ratio does the source give for TGGGCAGAAA here?
A: 0.987

Q: With TGGGCAGTCA as the sequence, how does the switch fluorescence ratio read?
A: 1.05

Q: For TGGGCATTGC, which switch fluorescence ratio is on record?
A: 1.04

Q: TGGGCCACGG was tested. Which switch fluorescence ratio did it give?
A: 1.1

Q: TGGGCCAGCT was tested. Which switch fluorescence ratio did it give?
A: 0.996

Q: For TGGGCCGAGT, which switch fluorescence ratio is on record?
A: 0.983

Q: How did the switch fluorescence ratio turn out when TGGGCCGTTC was run?
A: 0.959

Q: With TGGGCGACAA as the sequence, how does the switch fluorescence ratio read?
A: 1.19

Q: TGGGCGTATG was tested. Which switch fluorescence ratio did it give?
A: 0.954

Q: With TGGGCTGCGA as the sequence, how does the switch fluorescence ratio read?
A: 1.03

Q: How did the switch fluorescence ratio turn out when TGGGCTGCGC was run?
A: 0.981

Q: Which switch fluorescence ratio does the source give for TGGGCTGGAC here?
A: 1.63

Q: For TGGGCTGTG, which switch fluorescence ratio is on record?
A: 0.972

Q: For TGGGCTGTGT, which switch fluorescence ratio is on record?
A: 0.985

Q: Which switch fluorescence ratio does the source give for TGGGCTTTGA here?
A: 0.983

Q: Which switch fluorescence ratio does the source give for TGGGGAAATC here?
A: 2.91

Q: How did the switch fluorescence ratio turn out when TGGGGAACTA was run?
A: 0.961

Q: With TGGGGACTCA as the sequence, how does the switch fluorescence ratio read?
A: 1.05

Q: TGGGGAGTTG was tested. Which switch fluorescence ratio did it give?
A: 0.954

Q: Which switch fluorescence ratio does the source give for TGGGGATGCT here?
A: 0.958

Q: Which switch fluorescence ratio does the source give for TGGGGCTTG here?
A: 1

Q: TGGGGTAA was tested. Which switch fluorescence ratio did it give?
A: 1.05

Q: How did the switch fluorescence ratio turn out when TGGGGTCTAT was run?
A: 1

Q: TGGGGTGTC was tested. Which switch fluorescence ratio did it give?
A: 1.09

Q: TGGGGTGTCG was tested. Which switch fluorescence ratio did it give?
A: 1.05

Q: With TGGGTAAGCC as the sequence, how does the switch fluorescence ratio read?
A: 1

Q: For TGGGTACGTA, which switch fluorescence ratio is on record?
A: 1.03

Q: How did the switch fluorescence ratio turn out when TGGGTAGTCC was run?
A: 1.05

Q: TGGGTAGTTA was tested. Which switch fluorescence ratio did it give?
A: 0.999

Q: How did the switch fluorescence ratio turn out when TGGGTATGCT was run?
A: 0.99

Q: Which switch fluorescence ratio does the source give for TGGGTCCATG here?
A: 1.01

Q: TGGGTCCGAA was tested. Which switch fluorescence ratio did it give?
A: 1.04

Q: For TGGGTCCTTT, which switch fluorescence ratio is on record?
A: 1.05

Q: With TGGGTGACC as the sequence, how does the switch fluorescence ratio read?
A: 0.99

Q: TGGGTGGCAG was tested. Which switch fluorescence ratio did it give?
A: 1.01

Q: TGGGTTTT was tested. Which switch fluorescence ratio did it give?
A: 1.01

Q: How did the switch fluorescence ratio turn out when TGGTAAGAC was run?
A: 1.19

Q: Which switch fluorescence ratio does the source give for TGGTACAATA here?
A: 1

Q: TGGTACTCTG was tested. Which switch fluorescence ratio did it give?
A: 1.01

Q: How did the switch fluorescence ratio turn out when TGGTAGGG was run?
A: 1.01

Q: How did the switch fluorescence ratio turn out when TGGTATAAAT was run?
A: 1.01

Q: For TGGTATCAC, which switch fluorescence ratio is on record?
A: 0.987

Q: With TGGTATCATT as the sequence, how does the switch fluorescence ratio read?
A: 0.931

Q: TGGTATTAGC was tested. Which switch fluorescence ratio did it give?
A: 1

Q: How did the switch fluorescence ratio turn out when TGGTATTGT was run?
A: 0.957

Q: With TGGTCAGGAC as the sequence, how does the switch fluorescence ratio read?
A: 0.994

Q: TGGTCCAAAA was tested. Which switch fluorescence ratio did it give?
A: 1.02

Q: How did the switch fluorescence ratio turn out when TGGTCCAAAG was run?
A: 0.94

Q: How did the switch fluorescence ratio turn out when TGGTCCAACA was run?
A: 0.929

Q: With TGGTCCATTG as the sequence, how does the switch fluorescence ratio read?
A: 0.994

Q: Which switch fluorescence ratio does the source give for TGGTCCCCGA here?
A: 0.996

Q: How did the switch fluorescence ratio turn out when TGGTCGATGT was run?
A: 1.02

Q: With TGGTCGATTC as the sequence, how does the switch fluorescence ratio read?
A: 0.985

Q: Which switch fluorescence ratio does the source give for TGGTCGGTGA here?
A: 0.959

Q: TGGTCTAGGG was tested. Which switch fluorescence ratio did it give?
A: 0.94

Q: For TGGTCTCGTA, which switch fluorescence ratio is on record?
A: 1.02

Q: With TGGTGCGATT as the sequence, how does the switch fluorescence ratio read?
A: 0.969

Q: With TGGTGCGGC as the sequence, how does the switch fluorescence ratio read?
A: 1.03

Q: How did the switch fluorescence ratio turn out when TGGTGCGGGT was run?
A: 0.994

Q: Which switch fluorescence ratio does the source give for TGGTGGCGCC here?
A: 0.984

Q: With TGGTGGCTGC as the sequence, how does the switch fluorescence ratio read?
A: 0.975

Q: For TGGTGGGCGC, which switch fluorescence ratio is on record?
A: 1.03

Q: For TGGTGTGTG, which switch fluorescence ratio is on record?
A: 0.943

Q: For TGGTGTTAAC, which switch fluorescence ratio is on record?
A: 0.939

Q: How did the switch fluorescence ratio turn out when TGGTTAACGT was run?
A: 1.06

Q: How did the switch fluorescence ratio turn out when TGGTTCATAA was run?
A: 1

Q: How did the switch fluorescence ratio turn out when TGGTTCCTGA was run?
A: 0.972

Q: How did the switch fluorescence ratio turn out when TGGTTGAATG was run?
A: 1.01

Q: With TGGTTGCGA as the sequence, how does the switch fluorescence ratio read?
A: 1.08

Q: With TGGTTTAAAA as the sequence, how does the switch fluorescence ratio read?
A: 0.927

Q: Which switch fluorescence ratio does the source give for TGGTTTAAAG here?
A: 1

Q: Which switch fluorescence ratio does the source give for TGGTTTTACC here?
A: 0.981

Q: With TGTAAAACTC as the sequence, how does the switch fluorescence ratio read?
A: 1

Q: How did the switch fluorescence ratio turn out when TGTAAGGCGG was run?
A: 1.01

Q: Which switch fluorescence ratio does the source give for TGTAATAGGA here?
A: 0.964

Q: TGTAATCAAC was tested. Which switch fluorescence ratio did it give?
A: 0.993

Q: Which switch fluorescence ratio does the source give for TGTAATTCCA here?
A: 1

Q: For TGTACGAGTC, which switch fluorescence ratio is on record?
A: 0.918

Q: For TGTAGCCTCT, which switch fluorescence ratio is on record?
A: 1.01

Q: With TGTAGGAAAA as the sequence, how does the switch fluorescence ratio read?
A: 1.06

Q: TGTAGGATGT was tested. Which switch fluorescence ratio did it give?
A: 1.01

Q: For TGTAGGGTCG, which switch fluorescence ratio is on record?
A: 0.973

Q: How did the switch fluorescence ratio turn out when TGTAGGGTTT was run?
A: 1.01

Q: With TGTAGTAAAA as the sequence, how does the switch fluorescence ratio read?
A: 0.996

Q: TGTAGTATCT was tested. Which switch fluorescence ratio did it give?
A: 1.01

Q: With TGTAGTTAAT as the sequence, how does the switch fluorescence ratio read?
A: 0.966

Q: For TGTAGTTTAT, which switch fluorescence ratio is on record?
A: 1.02

Q: Which switch fluorescence ratio does the source give for TGTATCTAGT here?
A: 0.992

Q: How did the switch fluorescence ratio turn out when TGTATGAAG was run?
A: 0.968

Q: With TGTATGCCCT as the sequence, how does the switch fluorescence ratio read?
A: 1.01

Q: For TGTATGCGTC, which switch fluorescence ratio is on record?
A: 0.969

Q: For TGTATTCCTC, which switch fluorescence ratio is on record?
A: 1.01

Q: With TGTATTCGG as the sequence, how does the switch fluorescence ratio read?
A: 0.994

Q: TGTATTTTTC was tested. Which switch fluorescence ratio did it give?
A: 1.01

Q: How did the switch fluorescence ratio turn out when TGTC was run?
A: 0.993

Q: For TGTCAACTCG, which switch fluorescence ratio is on record?
A: 1

Q: TGTCAGAAAC was tested. Which switch fluorescence ratio did it give?
A: 0.948

Q: With TGTCAGCGGG as the sequence, how does the switch fluorescence ratio read?
A: 0.974

Q: Which switch fluorescence ratio does the source give for TGTCAGGATG here?
A: 0.98

Q: With TGTCATAGAA as the sequence, how does the switch fluorescence ratio read?
A: 0.997

Q: With TGTCATGGCA as the sequence, how does the switch fluorescence ratio read?
A: 0.991

Q: With TGTCATTAG as the sequence, how does the switch fluorescence ratio read?
A: 1.02

Q: With TGTCATTATC as the sequence, how does the switch fluorescence ratio read?
A: 1.01

Q: With TGTCCAAACT as the sequence, how does the switch fluorescence ratio read?
A: 1.06

Q: For TGTCCACACG, which switch fluorescence ratio is on record?
A: 1.02

Q: For TGTCCAGAGT, which switch fluorescence ratio is on record?
A: 1.04

Q: With TGTCCAGCCC as the sequence, how does the switch fluorescence ratio read?
A: 1

Q: With TGTCCAGGGT as the sequence, how does the switch fluorescence ratio read?
A: 1.57

Q: With TGTCCAGTG as the sequence, how does the switch fluorescence ratio read?
A: 1.23

Q: For TGTCCTGGGG, which switch fluorescence ratio is on record?
A: 0.983

Q: For TGTCTCTTCA, which switch fluorescence ratio is on record?
A: 1.04

Q: TGTCTGACAG was tested. Which switch fluorescence ratio did it give?
A: 1.04

Q: TGTCTGGCGT was tested. Which switch fluorescence ratio did it give?
A: 1.01

Q: Which switch fluorescence ratio does the source give for TGTCTTCTTA here?
A: 0.958

Q: TGTCTTTGAA was tested. Which switch fluorescence ratio did it give?
A: 0.965

Q: With TGTCTTTTAC as the sequence, how does the switch fluorescence ratio read?
A: 0.986

Q: With TGTGAACTTC as the sequence, how does the switch fluorescence ratio read?
A: 0.963

Q: For TGTGAATAGC, which switch fluorescence ratio is on record?
A: 0.998

Q: Which switch fluorescence ratio does the source give for TGTGAATTAT here?
A: 0.987

Q: How did the switch fluorescence ratio turn out when TGTGACTACT was run?
A: 1.02

Q: Which switch fluorescence ratio does the source give for TGTGATAGCC here?
A: 1.06

Q: How did the switch fluorescence ratio turn out when TGTGATATAA was run?
A: 0.978

Q: For TGTGATGTTC, which switch fluorescence ratio is on record?
A: 0.974

Q: With TGTGCGGGTG as the sequence, how does the switch fluorescence ratio read?
A: 1.09

Q: For TGTGGAACTC, which switch fluorescence ratio is on record?
A: 1.02

Q: How did the switch fluorescence ratio turn out when TGTGGACTTG was run?
A: 0.936

Q: How did the switch fluorescence ratio turn out when TGTGGCGAGG was run?
A: 0.997

Q: TGTGGCGAGT was tested. Which switch fluorescence ratio did it give?
A: 1.17

Q: TGTGGCGCAT was tested. Which switch fluorescence ratio did it give?
A: 0.995

Q: For TGTGGGATCC, which switch fluorescence ratio is on record?
A: 0.995

Q: How did the switch fluorescence ratio turn out when TGTGGGGGA was run?
A: 0.976

Q: Which switch fluorescence ratio does the source give for TGTGGGTCTA here?
A: 0.984

Q: TGTGGTCTGC was tested. Which switch fluorescence ratio did it give?
A: 0.933

Q: For TGTGTATGG, which switch fluorescence ratio is on record?
A: 0.979

Q: How did the switch fluorescence ratio turn out when TGTGTCAGTT was run?
A: 1

Q: TGTGTGAAGA was tested. Which switch fluorescence ratio did it give?
A: 1.04

Q: How did the switch fluorescence ratio turn out when TGTGTTAGTC was run?
A: 0.993

Q: How did the switch fluorescence ratio turn out when TGTGTTGGCA was run?
A: 1.02

Q: How did the switch fluorescence ratio turn out when TGTGTTTGAT was run?
A: 1.03

Q: TGTTAAACGT was tested. Which switch fluorescence ratio did it give?
A: 1.03

Q: With TGTTAAATCG as the sequence, how does the switch fluorescence ratio read?
A: 0.984

Q: Which switch fluorescence ratio does the source give for TGTTAAGTGA here?
A: 1.02

Q: How did the switch fluorescence ratio turn out when TGTTAATTCA was run?
A: 0.984

Q: TGTTAGACAG was tested. Which switch fluorescence ratio did it give?
A: 1

Q: For TGTTAGCATC, which switch fluorescence ratio is on record?
A: 1.06

Q: With TGTTAGTGT as the sequence, how does the switch fluorescence ratio read?
A: 1.01

Q: Which switch fluorescence ratio does the source give for TGTTAGTTCA here?
A: 0.973

Q: Which switch fluorescence ratio does the source give for TGTTATAAGT here?
A: 1

Q: How did the switch fluorescence ratio turn out when TGTTATCAGT was run?
A: 1

Q: How did the switch fluorescence ratio turn out when TGTTCCAATT was run?
A: 1.02

Q: Which switch fluorescence ratio does the source give for TGTTCCAGAT here?
A: 0.966

Q: For TGTTCCGATC, which switch fluorescence ratio is on record?
A: 1.09

Q: Which switch fluorescence ratio does the source give for TGTTCCTCAG here?
A: 1.28

Q: How did the switch fluorescence ratio turn out when TGTTCCTTTA was run?
A: 1.02
